Measurements published in PubChem BioAssay (NCI).
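Five compound concentrations were applied to cells in 96-well plates for 48 hours; endpoints were derived by simple linear interpolation of the resulting dose-response curve. GI50 marks 50% less growth. TGI: concentration producing complete growth inhibition.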

The compounds below were run on NCI-H322M lung (assay: inhibition of tumour cell growth, NCI panel, 48 h).
For `COc1cc(C2CC(c3ccc(Cl)cc3)=Nc3c(N)nc(N)nc3N2)ccc1Oc1nc(Nc2ccc(F)cc2)nc(N(C)C)n1` (stereo unspecified), the GI50 was > 100 µM and the TGI was > 100 µM. In the case of `Cc1ccc(C(=O)C[n+]2cccc3c4ccccc4ccc32)cc1`, the GI50 is reported as 18 µM and the TGI is reported as 66 µM. `CC(=O)Nc1ccc(-c2cn(-c3cccc(C(=O)Nc4ccc(Cl)c(C(F)(F)F)c4)c3)nn2)cn1` was tested, and the GI50 was 1.77 µM and the TGI was 4.32 µM.
